# Test results published in PMC4336329 (PLoS ONE, 2015).
# In all, about 310,000 compounds went through this assay and about 14,000 (4.5%) showed an effect of 50% or more. The effect is printed as a negative number. The list shows a part of the results.
# Molecular target: human ether-à-go-go-related gene (hERG) potassium channel (human, UniProt Q12809)
# Assay: primary screen, population patch clamp on CHO cells stably expressing hERG
# 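Also: peak tail current of the secondary pulse compared with the same well before compound.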
# human ether-à-go-go-related gene (hERG) potassium channel, sequence (Q12809 whole entry, looked up): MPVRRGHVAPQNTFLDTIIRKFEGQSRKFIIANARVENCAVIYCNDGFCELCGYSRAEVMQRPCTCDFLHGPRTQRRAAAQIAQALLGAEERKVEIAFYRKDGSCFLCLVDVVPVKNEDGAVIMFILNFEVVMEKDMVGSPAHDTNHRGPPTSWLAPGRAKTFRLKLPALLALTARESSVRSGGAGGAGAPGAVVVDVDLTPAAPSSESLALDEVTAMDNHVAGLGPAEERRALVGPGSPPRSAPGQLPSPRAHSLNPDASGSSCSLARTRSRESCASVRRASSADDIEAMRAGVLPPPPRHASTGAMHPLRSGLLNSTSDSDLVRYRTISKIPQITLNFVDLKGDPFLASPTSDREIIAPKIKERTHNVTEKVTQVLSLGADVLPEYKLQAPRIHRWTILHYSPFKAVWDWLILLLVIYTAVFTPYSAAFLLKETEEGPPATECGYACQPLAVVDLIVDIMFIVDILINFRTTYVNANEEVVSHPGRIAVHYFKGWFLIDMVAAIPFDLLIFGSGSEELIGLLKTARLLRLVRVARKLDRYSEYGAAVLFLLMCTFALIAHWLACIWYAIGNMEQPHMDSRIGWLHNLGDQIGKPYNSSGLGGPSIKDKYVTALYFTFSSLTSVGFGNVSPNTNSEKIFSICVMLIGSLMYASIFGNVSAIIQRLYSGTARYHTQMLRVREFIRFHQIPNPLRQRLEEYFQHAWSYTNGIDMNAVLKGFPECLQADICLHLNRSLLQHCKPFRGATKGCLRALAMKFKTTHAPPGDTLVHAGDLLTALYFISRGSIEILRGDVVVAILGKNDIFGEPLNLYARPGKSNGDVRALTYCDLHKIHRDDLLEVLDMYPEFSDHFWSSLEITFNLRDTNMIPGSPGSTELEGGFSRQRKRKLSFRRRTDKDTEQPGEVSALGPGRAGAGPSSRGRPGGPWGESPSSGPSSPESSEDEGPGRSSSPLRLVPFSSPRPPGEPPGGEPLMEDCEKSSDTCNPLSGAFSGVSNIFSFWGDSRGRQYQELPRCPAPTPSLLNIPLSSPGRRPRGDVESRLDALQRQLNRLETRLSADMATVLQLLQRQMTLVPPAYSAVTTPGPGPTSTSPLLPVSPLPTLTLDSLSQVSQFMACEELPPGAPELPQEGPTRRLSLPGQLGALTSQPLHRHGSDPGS
row,Compound,"hERG current change (%, negative = inhibition) at 10uM [%]"
1,CNC(=S)N(CCc1c(C)[nH]c2ccc(Cl)cc12)Cc1cc(OC)c(OC)c(OC)c1,-2.11
2,CN1CCCN(C(=O)COc2ccc(F)cc2F)CC1,-3.55
3,CCCCc1ccc(NC(=O)c2cnccn2)cc1,-11.1
4,CC(CCc1ccccc1)NC(=O)c1ccc(-n2cncn2)c([N+](=O)[O-])c1 (stereo not shown),-70.9
5,CSc1nnc([C@H](Cc2c[nH]c3ccccc23)NC(=O)OC(C)(C)C)o1,7.65
6,COc1cccc(NC(=S)N(C)C2CCN(C)CC2)c1,11
7,CCCCNC(=O)CNC(=S)N(Cc1ccccc1)Cc1cccs1,-42.9
8,CCc1ccc(C(=O)Cn2ncc(Cl)c(Cl)c2=O)cc1,10.7
9,Clc1ncc2[nH]cnc2n1,13.8
10,COC(=O)[C@H](Cc1c[nH]c2ccccc12)NC(=O)Cc1c[nH]c2ccccc12,7.82
11,Cn1c(CN2CCCC(C(=O)c3ccc4c(c3)OCO4)C2)nc2ccccc21 (stereo not shown),-70.5
12,FC(F)(F)c1cccc(N2CCN(c3nnnn3-c3ccccc3)CC2)c1,-25.3
13,CCP(=S)(CC)c1ccc(N(C)C)cc1,14.8
14,C/C(=N\NC(=O)C1CC1)c1cccnc1,1.73
15,C=C(C)[C@@H]1CCC2(C(=O)O)CC[C@]3(C)[C@H](CC[C@@H]4[C@@]5(C)CCC(=O)C(C)(C)[C@@H]5CC[C@]43C)[C@@H]12 (stereo partly shown),14.4
16,O=C(Cc1ccccc1F)Nc1nc(-c2cccs2)cs1,-19.7
17,OCC1(CCOc2ccccc2)CCN(Cc2cc(Cl)ccc2O)CC1,-24.7
18,COC(=O)c1ccccc1NC(=O)c1cnn2c(C(F)F)cc(C3CC3)nc12,15.5
19,NS(=O)(=O)c1ccc(Sc2ccc3c(c2)CCC3)nc1,16.5
20,O=C(C1CCCN(c2ncnc3c2nc2n3CCCCC2)C1)N1CCN(c2ccccc2)CC1 (stereo not shown),-74
21,Cc1nc(NC(=O)c2ccccc2)sc1-c1csc(Nc2cccc(F)c2)n1,10.6
22,CC1C=CC(C)C(C(=O)O)C1C(=O)O (stereo not shown),21.2

row,Compound,"hERG current change (%, negative = inhibition) at 10uM [%]"
1,COc1cccc(NC=C2C(=O)OC(C)(C)OC2=O)c1,-16.3
2,O=C(c1ccco1)N1CCN(Cc2c(F)cccc2Cl)CC1,-9.87
3,O=C(c1ccccc1)N(Cc1ccccc1)Cc1ccccc1,-19.7
4,COc1cc(NS(=O)(=O)c2ccc(N/C=C\C(=O)c3ccc(OC)c(OC)c3)cc2)nc(OC)n1,3.72
5,CCN(CC)S(=O)(=O)c1ccc2c(c1)nc(SCC(=O)N(C)C1CCS(=O)(=O)C1)n2CC (stereo not shown),6.94
6,CCOc1ccc(-c2nnc(-c3ccccc3)n2-c2ccccc2)cc1,-18.8
7,S=C(NCCSCc1ccc(Cl)c(Cl)c1)Nc1ccccc1,16.9
8,COC(=O)c1c(C#N)c(N)nc2c1CCC2,18.2
9,O=C(CSc1nnnn1-c1ccc2c(c1)OCCO2)N1CCN(C(=O)c2ccco2)CC1,-16.6
10,O=C(Nc1ccc2c(c1)OCO2)c1ccc(CO)cc1,4.24
11,O=C(CCC1CCCCC1)NCc1ccc(F)cc1,-5.07
12,COc1ccc(Cn2c(O)c(C=Nc3ccc(O)cc3)c3ccccc3c2=O)cc1,1.27
13,O=C(c1cc(F)ccc1F)C1CCCN(CCCc2ccccc2)C1 (stereo not shown),-73.2
14,CC(=O)N1CCN(C(C)=O)C1c1ccccc1,7.49
15,CCC(C)(O)c1[nH]c2ccc(C(F)(F)F)cc2c1C (stereo not shown),24.8
16,CC(O)c1cccc(N=Cc2ccc3ccccc3c2O)c1 (stereo not shown),12.3
17,CCOc1ccc(CN2CCN(Cc3cnc(-c4ccccc4)s3)CC2CCO)cc1 (stereo not shown),-90.7
18,Nc1nc2ccccc2n1C(=O)c1ccc(F)cc1,10.1
19,C=CCN(c1ccccc1)S(=O)(=O)c1cccc(C(=O)NCC2CCCO2)c1 (stereo not shown),-41.3
20,C/C(=N\Nc1cc(C)nc(-c2ccccc2O)n1)c1ccccc1,24.5
21,COCCOC(=O)c1c(C)n(C)c2ccc(OC(=O)N3CCOCC3)cc12,2.98
